The list shows a part of the results.

This assay deals with PfHDP1 homeodomain (GST-tagged). Kind of assay: gcPBM binding intensity (ln(normalized median fluorescence intensity)); higher = stronger DNA binding. In outline: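 Binding intensity is the highest Masliner-normalised natural-log median intensity over replicate spots in either probe orientation. To obtain it, GST-tagged P. falciparum DNA-binding domains made in E. coli were incubated for 1 h on an Agilent 4 × 180k array of primer-extended double-stranded 36-bp intergenic genomic probes plus negative controls. Detection used Alexa488 anti-GST antibody with scanning at 488 nm.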
For “TCTTTCTATTTATAATGTACTCAAAATTATTCTATA [XGTACX_site4867]”, the “gcPBM binding intensity (ln)” value was 6.45.
For the sequence “AAAATATAATATATTGCACACAAAAAGTGAATTATT [CACACA_site8489]”, the “gcPBM binding intensity (ln)” value is 10.6.
As for “TACCATTATTTTAAGTGTACATACTAATTTATATAT [XGTACX_site6548]”, the “gcPBM binding intensity (ln)” value came out at 6.56.
The result for “TTTTACCACTAAAAATGTACAAAAAAAAAAAAAAAA [XGTACX_site4226]” reads 6.2; that for “CCTTGCATTTATTATACACACACAAAAAAATATATA [CACACA_site7964]”, 7.58; that for “AAATTGTGTGAAATATATTAATATTATTATTATTAT [TGCATGCA_negctrl_site189]”, 6.41.
In the case of “TATGCACCCAGACACACACACACAACTAAAAAATAA [CACACA_site2567]” it was 8.1; in that of “TTTGTAGATTTTGTAACACACACATATATATACATA [CACACA_site8757]”, 6.57; in that of “TTTTTTTTTTTTGAGTGTACAAGATTGTTGTTCCAA [XGTACX_site6120]”, 6.17.
On to “AAATATTTGTGTGGTTGTACTATAATGATAAAAATA [XGTACX_site7703]”, for which the “gcPBM binding intensity (ln)” value was found to be 6.85.
With “TTTTTTCAAATTATTCGATATGTAAAAAAATAAAAT [GTGCAC_negctrl_site241]”, the “gcPBM binding intensity (ln)” value was 6.34.
Turning to GGTTTGAATTTTTAAGTGCATATAACATAAATGAAA, the “gcPBM binding intensity (ln)” value was 9.41.
Take “CATACATACAAACACACACACATATATATATATATA [CACACA_site43]”: the “gcPBM binding intensity (ln)” value was 9.35.
The result for “TTATATTATATATATATTATATATATGTATGCATAA [TGCATGCA_negctrl_site481]” reads 6.43; that for “AGATAGCTATTAAAAAGTACAAAAAAATATATATAT [XGTACX_site6289]”, 7.79.
For the sequence “TATTTTATATAAAGGTGTACTTATACAAAAATATAT [XGTACX_site7435]”, the “gcPBM binding intensity (ln)” value amounted to 6.52.
In the case of “TATACAGGAATATTTTTACACACTAATAATTATAAA [CACACA_site8477]” it was 6.43.
In the case of “ATAAATACAGATATTACACACTTCTTATTCTAAGAA [CACACA_site5640]” it was 6.35; in that of “AAAAAAAAATAAAAAAGTACATTCATTTTATAAGAT [XGTACX_site3507]”, 6.41; in that of “CATGTCAAAATTATACGTACATATATAAGTTCCATT [XGTACX_site6331]”, 6.56.
Take “ATCCTCTTTTTAAGTTGTACAGGGTCGAAAAAAAAA [XGTACX_site6852]”: the “gcPBM binding intensity (ln)” value came out at 6.42.
In the case of “GATTATTATTATAAGGGTACAAATATTTAATAAAAA [XGTACX_site7144]”, the “gcPBM binding intensity (ln)” value is 6.67.
Consider “ACAAATACTAACAACGCATGTAAGCCTACAATAAAT [TGCATGCA_site551]”, for which the “gcPBM binding intensity (ln)” value was 6.6.
The result for “GCTCCTTTTACCATCGCACACGATAAAAAAAAATAA [CACACA_site3255]” reads 7.08; that for “ATTATATATATATATATATATATATATATATTATAT [CACACA_negctrl_site234]”, 7.41; that for “AATGTAATATAAATATGTACATATAAACTATATATA [XGTACX_site6871]”, 6.38.
Take “GTTTTAAAACAAATATGTACACATAATATAGGAAAG [XGTACX_site1803]”: the “gcPBM binding intensity (ln)” value came out at 7.46.
“ACTTATGATTTATTTTGTACATATATACTATTCCTG [XGTACX_site5275]”: the “gcPBM binding intensity (ln)” value was 7.14.
“TTTTGAAATTTTTGTGTTTTTCCTTTTTATTTTATA [CACACA_negctrl_site1740]”: the “gcPBM binding intensity (ln)” value was determined as 6.15.
In the case of “ATAAAGATTAATAAAATAAAATTCCGCAAACATATA [CACACA_negctrl_site244]”, the “gcPBM binding intensity (ln)” value came to 6.44.
For the sequence “ATAAATCCATGTAACTGTACTTTTTTTTTTTTTTTT [XGTACX_site7373]”, the “gcPBM binding intensity (ln)” value was 6.17.
As to “AAGTAATTTGTTGACACACACACACGCATACCTATA [CACACA_site7140]”, the “gcPBM binding intensity (ln)” value was 6.74.
“TCCCAATTTCTATCCTGTACAGACATAAATATATAC [XGTACX_site5937]”: the “gcPBM binding intensity (ln)” value was 6.99.
The result for “TTTTTTTTCTAAATTATATGAAAATATATGTTATGT [GTGCAC_negctrl_site85]” reads 6.18.
Take “ACAATTTTAAAATGAACACACATGTTTTTCTTACTT [CACACA_site1014]”: the “gcPBM binding intensity (ln)” value was found to be 6.86.
The result for “ATTTTCTATTTTATTTGTACGTAATTTAATTTTTTT [XGTACX_site3609]” reads 7.08.
Turning to “TACATAAACATTTATACACACATTATAAATACATAT [CACACA_site4386]”, the “gcPBM binding intensity (ln)” value is 6.74.
Regarding “AATATTTTTTTATAAACACACATATATATAAATATA [CACACA_site3524]”, the “gcPBM binding intensity (ln)” value came to 6.85.
In the case of TATATATTTTTATGTGTGCACTGTTTCATAAAAGAA, the “gcPBM binding intensity (ln)” value was 10.1.
Turning to “TAATAATTTATATATGCATGTCAAAATAATATTAAA [TGCATGCA_site12]”, the “gcPBM binding intensity (ln)” value was 6.28.
Regarding “TATATAAATATAATATGTACATATAATATGTATATA [XGTACX_site8120]”, the “gcPBM binding intensity (ln)” value stood at 6.42.
In the case of “AAAAAAAAAAGGTGTACATGCAAAATAAATTCTTAA [TGCATGCA_site556]”, the “gcPBM binding intensity (ln)” value stood at 6.35.
In the case of “TATGGTAACATATGCTGTACAATATAATATGTTTAA [XGTACX_site1601]” it was 6.33.
As for “AAAAAAAAAAAACACACACACACACCGACAAAATAT [CACACA_site8411]”, the “gcPBM binding intensity (ln)” value was 6.9.

The values above are taken from the supplement of paper PMC11417369.
